Measured values taken from PubChem BioAssay AID1865 (National Center for Advancing Translational Sciences (NCATS), 2009).
Among all 280,000 compounds or so, about 540 (0.19%) were called active. The inconclusive results got no clear call from the source; some entries with a clear call stand among them for comparison. The call rests on the fitted dose curve; in most records, active means well fitted activation curve with a large enough effect; inconclusive means small, poorly fitted or top-dose-only effect; inactive means flat fitted curve, though single readings scatter. Where the call is inconclusive, the potency comes from a doubtful curve fit.

Test: Quantitative High-Throughput Screen for Regulators of Epigenetic Control; further: nearly all actives have a fitted effect of over 60% in size; on GFP activation: % of control where 0% means no effect
Details: murine LDR cells, GFP reporter derepression, 30 h; GFP activation: at 53.9 µM (top of the series)
How it was run: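 Readout is the number of GFP-expressing murine LDR cells, counted by cytometry following washing. Cells were treated with compound for 30 h at 37 C; the stably integrated CMV-GFP locus is normally silent.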
Potency means the concentration at half of the fitted maximal effect; tags describe the fitted curve by direction and shape.

Compound | Potency | GFP activation
Cc1ccc(SC(=O)c2c(C)noc2-c2cc(C)on2)cc1 | inconclusive: 35.5 µM [activator, single point] | 
COc1cccc(NC(=O)Cn2c(=O)n(-c3cccc(OC)c3)c(=O)c3sc4ccccc4c32)c1 | inconclusive: 20 µM [activator, partial curve] | 
Cc1ccc2[nH]c(=O)c(CN(Cc3cccs3)C(=S)NCc3ccco3)cc2c1 | inconclusive: 15.8 µM [activator, single point] | 
COCCCn1c(=NC(=O)c2ccncc2)c(C#N)cc2c(=O)n3cccc(C)c3nc21 |  | inactive: -1.08%
COCCNC(=S)N/N=C(\C)c1ccc(Cl)c(Cl)c1Cl | inconclusive: 35.5 µM [activator, single point] | 
COc1ccc(C2c3c(oc4cc(C)cc(C)c4c3=O)C(=O)N2Cc2ccco2)cc1OC (stereo unspecified) |  | inactive: -1.83%
COc1ccc(C2c3ccc(O)cc3Oc3ncn4nc(-c5cccnc5)nc4c32)cc1OC (stereo unspecified) | inconclusive: 25.1 µM [activator, single point] | 
Cc1cc(=O)oc2cc(OCc3ccc(C(=O)N4CCN(c5ccccc5)CC4)cc3)ccc12 | inconclusive: 17.8 µM [activator, single point] | 
O=C(COC(=O)c1cn(-c2ccccc2)nc1-c1ccccc1)Nc1ncc(Cl)cc1Cl | inconclusive: 17.8 µM [activator, single point] | 
CCOC(=O)N1CCC(NS(=O)(=O)c2ccc(C)cc2)CC1 |  | inactive: -0.99%
Cc1ccccc1CNC(=O)c1ccc(-n2c(C)cc3c2CCCC3)cc1 | inconclusive: 35.5 µM [activator, single point] | 
O=C(CC1S/C(=N/N=C/c2c[nH]c3ccc(OCc4ccccc4)cc23)NC1=O)Nc1ccccc1 (stereo unspecified) | inconclusive: 10 µM [activator, partial curve] | 
CCC(Oc1ccccc1F)C(=O)Nc1c(C(=O)c2ccccc2)oc2ccccc12 (stereo unspecified) |  | inactive: -0.128%
Cc1ccc(S(=O)(=O)n2nc(OC(=O)c3cccs3)cc2N)cc1 | inconclusive: 35.5 µM [activator, single point] | 
COc1ccc(C(C[N+](=O)[O-])n2nc(C)cc2C)cc1 (stereo unspecified) | active: 12.6 µM | 
Cc1ccc(N2C(=O)C3C4C=CC(CNC(=S)Nc5cccc(Cl)c5)(O4)C3C2=O)cc1 (stereo unspecified) | inconclusive: 25.1 µM [activator, single point] | 
Cc1ccc(NC(=O)Cn2c(CCC(=O)O)ccc2-c2cccs2)cc1 | inactive | 
O=[N+]([O-])c1ccc2nc(-c3ccccn3)[nH]c2c1 | inconclusive: 1.12 µM [activator, full curve] | 
COc1ccc(S(=O)(=O)N2CCN(c3ccccc3F)CC2)cc1-c1noc(C)n1 | active: 1.12 µM | 
N#Cc1cc2ccc(N3CCOCC3)cc2cc1C#N | inconclusive: 35.5 µM [activator, single point] | 
COc1ccc(C2=CC(=O)N(Nc3ccccc3)C2=O)cc1 | inconclusive: 31.6 µM [activator, single point] | 
COC(=O)c1ccccc1COn1c(=O)c[n+]([O-])c2ccccc21 | inconclusive: 22.4 µM [activator, single point] | 

Compound | Potency | GFP activation
CCN(CC)CCCC(C)Nc1c2ccc(Cl)cc2nc2ccc(OC)cc12 (stereo unspecified) | active: 3.16 µM | 
Oc1ccc(NCc2cccc(OCc3ccccc3)c2)cc1 | inconclusive: 20 µM [activator, single point] | 
S=c1c2c(nc3nc[nH]n13)CCC2 | inconclusive: 22.4 µM [activator, single point] | 
CCOC(=O)c1c(C)[nH]c(C(=O)N/N=C\c2ccccc2Cl)c1C | inconclusive: 35.5 µM [activator, single point] | 
C=CCN1C(=O)/C(=C2/Sc3ccc(OC)cc3N2C)SC1=Nc1cccc(O)c1 | active: 10 µM | 
COc1ccc(C(C)(C)C)cc1NC(=O)c1ccc2c(c1)SC1=NS(=O)(=O)CCN12 | inconclusive: 35.5 µM [activator, single point] | 
COc1ccccc1CNC(=O)CCn1c(=O)c2ccccc2n(CC(=O)Nc2cccc(Cl)c2)c1=O | inconclusive: 25.1 µM [activator, single point] | 
CC(=O)N1C=Cc2c(c(C)c3c([nH]c4ccccc43)c2C)C1 | inconclusive: 35.5 µM [activator, single point] | 
N#CCc1ccc(NC(=O)/C=C/c2ccc([N+](=O)[O-])o2)cc1 | inconclusive: 4.47 µM [activator, single point] | 
CC(=O)Nc1sc(/C(C#N)=C\c2cccc(Cl)c2)nc1-c1ccc(C)cc1 | active: 7.94 µM | 
CCOC(=O)N1CCN(C(=O)c2noc(C(C)C)c2[N+](=O)[O-])CC1 | inconclusive: 7.08 µM [activator, partial curve] | 
COc1ccc(OC)c(/C=C2\SC(=S)N(Cc3cccnc3)C2=O)c1 | inconclusive: 14.1 µM [activator, single point] | 
S=C(N/N=C/c1cccc2ccccc12)Nc1cccc(Cl)c1 |  | inactive: 3.96%
CCCCN1C(=O)C(O)(CC(=O)c2ccc(CC)cc2)c2cc(Br)ccc21 (stereo unspecified) | inconclusive: 35.5 µM [activator, single point] | 
Cc1ccc2nc3c(cc(C#N)c(=N)n3CC3CCCO3)c(=O)n2c1 (stereo unspecified) | inconclusive: 35.5 µM [activator, single point] | 
CC(C)(C)c1cc(CSC(=S)NC2CCS(=O)(=O)C2)c(Br)c(C(C)(C)C)c1 (stereo unspecified) | inconclusive: 22.4 µM [activator, single point] | 
O=C(N/N=C/c1ccccn1)c1cc(-c2ccc(Cl)cc2)nc2ccccc12 | active: 5.01 µM | 
CCN(CC)c1ccc(/C=C(\C#N)c2ccccn2)cc1 | active: 17.8 µM | 
Cc1ccc(NC(=O)CSc2nc3c(oc4ccccc43)c(=O)n2Cc2ccco2)cc1F |  | inactive: -1.44%
CCOC(=O)Cc1csc(SCC(=O)Nc2cccc(C#N)c2)n1 | inconclusive: 0.708 µM [activator, full curve, poor fit] | 
CCC/C=C/C1C(=O)C2OC2C2(OCC(CC)(CC)CO2)C1CO (stereo unspecified) | inconclusive: 5.62 µM [activator, single point] | 
C=C(C(C)=O)C(O)c1ccccc1 (stereo unspecified) | inconclusive: 35.5 µM [activator, single point] | 

Compound | Potency | GFP activation
CN(/N=C/c1ccc(O)cc1O)c1nc(-c2ccccc2)cc(-c2ccccc2)n1 | inconclusive: 15.8 µM [activator, single point] | 
O=C(COC(=O)C(c1ccccc1)c1ccccc1)NCc1ccco1 |  | inactive: 2.08%
Cc1cc(CNC(=O)[C@@H]2C[C@H]2[C@@H](NP(=O)(c2ccccc2)c2ccccc2)c2ccccc2)nn1C |  | inactive: 6.57%
COC(=O)C1=C(C(=O)OC)SC(=C2C(=S)C(C)(C)N(C(=O)C(C)C)c3ccccc32)S1 |  | inactive: 1.85%
CCOC(=O)c1c(-c2ccc(C)cc2)csc1NC(=O)/C(C#N)=C/c1ccc(O)c(OC)c1 | active: 11.2 µM | 
Cc1cccc(Nc2c(-c3ccc(N4CCOCC4)cc3)nc3ncccn23)c1 | inconclusive: 31.6 µM [activator, single point] | 
COc1cc(OC)c2c(-c3cccc(-c4ccc(C#N)cc4)c3)cc(=O)oc2c1 | inconclusive: 22.4 µM [activator, partial curve] | 
CC(=O)O[C@H]1CC(C)(C)C(=C=C/C(C)=C/C=C/C(C)=C/C=C/C=C(C)/C=C/C=C(\C)C(=O)C[C@@]23O[C@]2(C)C[C@@H](O)CC3(C)C)[C@](C)(O)C1 | inconclusive: 31.6 µM [activator, single point] | 
OC(COCCOc1ccc(Br)cc1)CN1CCN(Cc2ccccc2)CC1 (stereo unspecified) |  | inactive: -1.01%
NC(=O)c1ccc(N=Cc2ccc([N+](=O)[O-])s2)cc1 | inconclusive: 6.31 µM [activator, single point] | 
COc1ccc(NC(=O)C/C(C)=N/NC(=O)C(=O)Nc2cccc(Cl)c2C)c(OC)c1 | inconclusive: 35.5 µM [activator, single point] | 
Cc1cccc(N2CCN(c3c(CN4CCCC4)c(=O)oc4ccccc34)CC2)c1C |  | inactive: -0.594%
COc1ccccc1Nc1nc2c(S(=O)(=O)c3ccc(C(C)C)cc3)nnn2c2ccsc12 | inconclusive: 14.1 µM [activator, single point] | 
Cc1cc(C)cc(Oc2nc3c(C)cccn3c(=O)c2/C=C(\C#N)C(=O)NC2CCS(=O)(=O)C2)c1 (stereo unspecified) | inconclusive: 22.4 µM [activator, single point] | 
CCC(C)NCCOCCOc1ccc(Cl)c2ccccc12 (stereo unspecified) |  | inactive: 1.06%
CCSc1ccccc1C(=O)n1nnc2ccccc21 | inconclusive: 20 µM [activator, single point] | 
CC(C)C(=O)N1CCN(c2ccc(NC(=O)c3ccc([N+](=O)[O-])o3)cc2Cl)CC1 | inconclusive: 1.58 µM [activator, partial curve] | 
O=C1Cc2cc(S(=O)(=O)N3CCN(c4ccccc4)CC3)ccc2N1 | inconclusive: 31.6 µM [activator, single point] | 
COC(=O)c1ccc(COc2ccc(/C=C(\C#N)c3nc4ccccc4[nH]3)cc2OC)o1 | inconclusive: 25.1 µM [activator, single point] | 
N#Cc1c(-c2cccc(Br)c2)cc(-c2cccnc2)nc1N | inconclusive: 20 µM [activator, single point] | 
O=C(Cn1c(=O)oc2cc(S(=O)(=O)N3CCCCCC3)ccc21)Nc1cccc(C(F)(F)F)c1 | inconclusive: 25.1 µM [activator, single point] | 
O=C(NCCc1nnc2ccc(NCc3ccc(F)cc3)nn12)c1ccccc1 | inconclusive: 0.141 µM [activator, full curve, poor fit] | 
